Assay results published in US20160017024A1 (Five Prime, published 2016).

B1: Human ALK ECD-Fc (Fc fusion)
chain: VGSGMGTGQRAGSPAAGSPLQPREPLSYSRLQRKSLAVDFVVPSLFRVYARDLLLPPSSSELKAGRPEARGSLALDCAPLLRLLGPAPGVSWTAGSPAPAEARTLSRVLKGGSVRKLRRAKQLVLELGEEAILEGCVGPPGEAAVGLLQFNLSELFSWWIRQGEGRLRIRLMPEKKASEVGREGRLSAAIRASQPRLLFQIFGTGHSSLESPTNMPSPSPDYFTWNLTWIMKDSFPFLSHRSRYGLECSFDFPCELEYSPPLHDLRNQSWSWRRIPSEEASQMDLLDGPGAERSKEMPRGSFLLLNTSADSKHTILSPWMRSSSEHCTLAVSVHRHLQPSGRYIAQLLPHNEAAREILLMPTPGKHGWTVLQGRIGRPDNPFRVALEYISSGNRSLSAVDFFALKNCSEGTSPGSKMALQSSFTCWNGTVLQLGQACDFHQDCAQGEDESQMCRKLPVGFYCNFEDGFCGWTQGTLSPHTPQWQVRTLKDARFQDHQDHALLLSTTDVPASESATVTSATFPAPIKSSPCELRMSWLIRGVLRGNVSLVLVENKTGKEQGRMVWHVAAYEGLSLWQWMVLPLLDVSDRFWLQMVAWWGQGSRAIVAFDNISISLDCYLTISGEDKILQNTAPKSRNLFERNPNKELKPGENSPRQTPIFDPTVHWLFTTCGASGPHGPTQAQCNNAYQNSNLSVEVGSEGPLKGIQIWKVPATDTYSISGYGAAGGKGGKNTMMRSHGVSVLGIFNLEKDDMLYILVGQQGEDACPSTNQLIQKVCIGENNVIEEEIRVNRSVHEWAGGGGGGGGATYVFKMKDGVPVPLIIAAGGGGRAYGAKTDTFHPERLENNSSVLGLNGNSGAAGGGGGWNDNTSLLWAGKSLQEGATGGHSCPQAMKKWGWETRGGFGGGGGGCSSGGGGGGYIGGNAASNNDPEMDGEDGVSFISPLGILYTPALKVMEGHGEVNIKHYLNCSHCEVDECHMDPESHKVICFCDHGTVLAEDGVSCIVSPTPEPHLPLSLILSGS[no letters for human IgG1 Fc with changes]
notes: Expressed in CHO-3E7 cells; also called human ALK-Fc
B2: Human LTK extracellular domain (ECD)-Fc (Fc fusion)
chain: ILCSSPGSQETFLRSSPLPLASPSPRDPKVSAPPSILEPASPLNSPGTEGSWLFSTCGASGRHGPTQTQCDGAYAGTSVVVTVGAAGQLRGVQLWRVPGPGQYLISAYGAAGGKGAKNHLSRAHGVFVSAIFSLGLGESLYILVGQQGEDACPGGSPESQLVCLGESRAVEEHAAMDGSEGVPGSRRWAGGGGGGGGATYVFRVRAGELEPLLVAAGGGGRAYLRPRDRGRTQASPEKLENRSEAPGSGGRGGAAGGGGGWTSRAPSPQAGRSLQEGAEGGQGCSEAWATLGWAAAGGFGGGGGACTAGGGGGGYRGGDASETDNLWADGEDGVSFIHPSSELFLQPLAVTENHGEVEIRRHLNCSHCPLRDCQWQAELQLAECLCPEGMELAVDNVTCMDLHKPPGPLGS[no letters for human IgG1 Fc with changes]
notes: Expressed in CHO-3E7 cells; also called LTK ECD-Fc; human LTK-Fc
B3: Mouse LTK ECD-Fc (Fc fusion)
chain: ILCSNSEFQTPFLTPSLLPVLVLNSQEQKVTPTPSKLEPASLPNPLGTRGPWVFNTCGASGRSGPTQTQCDGAYTGSSVMVTVGAAGPLKGVQLWRVPDTGQYLISAYGAAGGKGAQNHLSRAHGIFLSAVFFLRRGEPVYILVGQQGQDACPGGSPESQLVCLGESGEHATTYGTERIPGWRRWAGGGGGGGGATSIFRLRAGEPEPLLVAAGGGGRSYRRRPDRGRTQAVPERLETRAAAPGSGGRGGAAGGGSGWTSRAHSPQAGRSPREGAEGGEGCAEAWAALRWAAAGGFGGGGGACAAGGGGGGYRGGDTSESDLLWADGEDGTSFVHPSGELYLQPLAVTEGHGEVEIRKHPNCSHCPFKDCQWQAELWTAECTCPEGTELAVDNVTCMDLPTTASPGS[no letters for human IgG1 Fc with changes]
notes: also called mouse LTK ECD-Fc (human Fc)

Key:
Human FAM150A [1] = molecular target: T1, Human FAM150A (human, UniProt Q6UXT8 28-129); assay: SPR (Biacore T100), ECD-Fc captured on anti-human IgG CM4 chip, FAM150A as analyte; 1:1 or steady state affinity model
T1 construct: Expressed in HEK 293 6E cells (or HEK293T supernatant) and secreted
T1 sequence: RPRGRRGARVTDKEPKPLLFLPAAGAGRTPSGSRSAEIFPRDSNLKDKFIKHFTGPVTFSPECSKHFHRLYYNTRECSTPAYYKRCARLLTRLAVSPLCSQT
Protocol: Binding kinetics of FAM150A and FAM150B to LTK ECD-Fc and ALK ECD Fc fusion proteins was determined using Biacore T100 surface plasmon resonance (SPR) (GE Healthcare Life Sciences, Piscataway, N.J.). LTK ECD-Fc and ALK ECD-Fc (and a control unrelated protein-Fc fusion) were captured on a CM4 sensor chip immobilized with anti-human IgG antibody using the Human Antibody Capture Kit (GE Healthcare Life Sciences, Piscataway, N.J.). 10 mM HEPES buffered saline, pH 7.4, 150 mM NaCl, 0.005% Tween-20 (HBS-P, GE Healthcare Life Sciences, Piscataway, N.J.) was used as the running and dilution buffer. Capture levels of the ECD-Fc fusions were adjusted to approximately 300-500RU so that binding values would be greater than the levels of non-specific binding to the reference flow cell. FAM150A and FAM150B were injected at eight concentrations (300 nM, 100 nM, 33.3 nM, 11.1 nM, 3.7 nM, 1. 2 nM, 0.41 nM, 0.13 nM and 0 nM) for 90 seconds or 180 seconds. […]
(§1) The association constant, dissociation constant, and affinity for FAM150A for LTK ECD-Fc and ALK ECD-Fc fusions was calculated using the Biacore T100 Evaluation software package using standard double referencing technique and the 1:1 binding model or steady state affinity model. The affinities of FAM150B for LTK ECD-Fc and ALK ECD-Fc could not be calculated in this assay due to high non-specific binding.

Human FAM150A [2] = molecular target: T1, Human FAM150A; assay: SPR (Biacore T100), ECD-Fc captured on Protein A CM4 chip, FAM150A as analyte; 1:1 binding model
Protocol: The kₐ, kd, and KD for binding of human FAM150A to human LTK ECD-Fc (SEQ ID NO: 23) and mouse LTK ECD-Fc (SEQ ID NO: 25) was determined as follows. Binding kinetics of FAM150A to human and mouse LTK ECD-Fc fusion proteins was determined using Biacore T100 SPR (GE Healthcare Life Sciences, Piscataway, N.J.). LTK ECD-Fc fusions were captured on a CM4 sensor chip immobilized with Protein A (Thermo Scientific, Rockford, Ill.). HBS-P (GE Healthcare Life Sciences, Piscataway, N.J.) was used as the running and dilution buffer. Capture levels of the ECD-Fc fusions were adjusted to approximately 300-500RU so that binding values would be greater than the levels of non-specific binding to the reference flow cell. FAM150A was injected at […] (100 nM, 33.3 nM, 11.1 nM, 3.7 nM, 1.2 nM, 0.41 nM, 0.13 nM, 0.046 nM and 0 nM) for 120 seconds. The association constant, dissociation constant, and affinity of FAM150A for LTK Fc-ECD fusions was calculated using the Biacore T100 Evaluation software package using the 1:1 binding model.

Human FAM150A [3] = molecular target: T1, Human FAM150A; assay: SPR (Biacore T100), ECD-Fc captured on anti-human IgG CM4 chip, FAM150A as analyte; 1:1 binding model
Protocol: Binding kinetics of FAM150A and FAM150B to LTK ECD-Fc and ALK ECD Fc fusion proteins was determined using Biacore T100 surface plasmon resonance (SPR) (GE Healthcare Life Sciences, Piscataway, N.J.). LTK ECD-Fc and ALK ECD-Fc (and a control unrelated protein-Fc fusion) were captured on a CM4 sensor chip immobilized with anti-human IgG antibody using the Human Antibody Capture Kit (GE Healthcare Life Sciences, Piscataway, N.J.). 10 mM HEPES buffered saline, pH 7.4, 150 mM NaCl, 0.005% Tween-20 (HBS-P, GE Healthcare Life Sciences, Piscataway, N.J.) was used as the running and dilution buffer. Capture levels of the ECD-Fc fusions were adjusted to approximately 300-500RU so that binding values would be greater than the levels of non-specific binding to the reference flow cell. FAM150A and FAM150B were injected at eight concentrations (300 nM, 100 nM, 33.3 nM, 11.1 nM, 3.7 nM, 1. 2 nM, 0.41 nM, 0.13 nM and 0 nM) for 90 seconds or 180 seconds. The short and long association method was used to increase the accuracy of the binding kinetics.
as §1

Binder | Kd (Human FAM150A [1]) | Kd (Human FAM150A [2]) | koff (Human FAM150A [2]) | kon (Human FAM150A [2]) | Kd (Human FAM150A [3]) | koff (Human FAM150A [3]) | kon (Human FAM150A [3])
B1 | 280 nM |  |  |  |  |  | 
B2 |  | < 0.028 nM | 0.000278 s⁻¹ | > 1e+07 M⁻¹ s⁻¹ | < 0.04 nM | 0.000398 s⁻¹ | > 1e+07 M⁻¹ s⁻¹
B3 |  | 0.95 nM | 0.00799 s⁻¹ | 8.45e+06 M⁻¹ s⁻¹ |  |  | 
